# PMC12136788
# The other results are listed elsewhere or left out.
# B1: chr12:39756943:39756944:-_ENSG00000139116_ENST00000544797|hu_mus|hu_hu_hu_mus_False|68_98 (ssRNA)
# RNA: GGGAGUUCUACAGUCCGACGAUCGGUUUGGCUGUUACCCCCGAGGGAAUCCUGCAAGAGUCUUGUCAGCUUGGAAUCUCUGUAAGGGACAUGGGUGGCUCUCUUGCUCUUGUCCCCCAAGGCGCUGAUUACAUUCCCAAGAGCCAACAGAGGAUUGAGCAUCA
# B2: chr2:26507767:26507768:+_ENSG00000138029_ENST00000317799|hu_mus|FALSE|FALSE (ssRNA)
# RNA: GGGAGUUCUACAGUCCGACGAUCCUUGGUUUUCCUACCCAUGUAGUUUUGUGCAAACCAAUCAGAAUCCAUGGCUUUAAAGUUAGCUAAAAUCUGGCCUGAGAAGGCUUCAUGAAAUUCAAAAGCAUCGAUAUCAUUCAUGGUCAACAGAGGAUUGAGCAUCA
# B3: chr22:19452774:19452775:-_ENSG00000070010_ENST00000399523|hu_hu|hu_hu_hu_mus_False|38_108 (ssRNA)
# RNA: GGGAGUUCUACAGUCCGACGAUCCUUUUCAUUAUAGUUGAUAGCAAUCACAUCUCCAGUCGUCAGACAGGCGAAGUUUCUCAAUGCAUUUUCUAAUACGGCUUUGGGGUUGGUAAUAUCCAGGAAGUCUGGGCUCUGAGGCUGCAACAGAGGAUUGAGCAUCA
# B4: chr10:33190432:33190433:-_ENSG00000150093_ENST00000302278|hu_mus|hu_hu_hu_mus_True|48_68 (ssRNA)
# RNA: GGGAGUUCUACAGUCCGACGAUCUACAUUUUCCAAACCUGCAUGUGAAUAAAACCCUGGCCACAGAGCCCUAAAGCUACCCUACUGUGACUAUGGAGCUGCUGCUGUGAGCUUGGUGUUGCAAAAUCCGCCUGAGUAGGAUUCCAACAGAGGAUUGAGCAUCA
# B5: chr7:4964383:4964384:-_ENSMUSG00000061374_ENSMUST00000077385|mus_hu|FALSE|FALSE (ssRNA)
# RNA: GGGAGUUCUACAGUCCGACGAUCGCAGCGGUAGGGCCGCUCCCCGGUGUGCGAGCGCAGGUGGUUGGCUAGGUUGAAGCUGUGCUUGAAACCCUUGCCGCAGCGCGGACAUGCGUGGGGCUUGAGCGCUGUGUGCCGGGCAAACAACAGAGGAUUGAGCAUCA
# B6: chr18:31598358:31598359:-_ENSMUSG00000024261_ENSMUST00000025110|mus_hu|motif|central (ssRNA)
# RNA: GGGAGUUCUACAGUCCGACGAUCAUGCAUUUUUCAUAGAAUUUACAAACACUGUGAUAUCAAACACAUUCUCAAAAACUGCGGAAGUACUGACACAAAACCUGACUCAAAAUGUAAAUUUUUCAGUAGACUUAAUUUCUAACUCAACAGAGGAUUGAGCAUCA
# B7: chrX:7701523:7701524:-_ENSMUSG00000031166_ENSMUST00000033506|mus_mus|motif|central (ssRNA)
# RNA: GGGAGUUCUACAGUCCGACGAUCCAGGCAAGUGUGGGGUCCACCCAAACAGUAGCUGCCAAUGUUGGGGAGUUUGACAACCGGACCUGGUGAAAGCCCCGUGGUUGAACUUAACAUUCUGCACCUAAUUUCCCUACUGCUGUCCAACAGAGGAUUGAGCAUCA
# B8: chr7:75932113:75932114:+_ENSG00000106211_ENST00000248553|hu_hu|hu_hu_hu_mus_False|8_58 (ssRNA)
# RNA: GGGAGUUCUACAGUCCGACGAUCCUGCGACCACUCAUCGGGCAACCGGGGCACCCCGAAAGCUUGAUCGAAGAGGCGGCUAUGCGGAGGGUACCAGUCCCGGAAUGGUUCCCAGCUCGGGCUCCGCAGCGAGAAGGAGGGCACCAACAGAGGAUUGAGCAUCA
# B9: chr4:95690885:95690886:+_ENSMUSG00000028572_ENSMUST00000156910|mus_mus|mus_mus_mus_hu_False|58_108 (ssRNA)
# RNA: GGGAGUUCUACAGUCCGACGAUCUUUAUUUUUAGAAAAAUACCAUGCUAAAAUAUUUUCAAAGGCUUAUUUUAUUUUACUAAAAGACACAGGCAAGCAGACACUACAAGAAUAUAUGAAAAUGAAACUCAACAAUAUAACUGUCAACAGAGGAUUGAGCAUCA
# B10: chr17:65740002:65740003:+_ENSG00000130935_ENST00000581375|hu_hu|hu_hu_hu_mus_False|8_18 (ssRNA)
# RNA: GGGAGUUCUACAGUCCGACGAUCAACAAAUCUUUCUUCCCUGGACGAACAGGAAGAUUCAUAUUAAAAAAAAUAUAUAUCCAUCAAGUUAGGUGUGGUGGCCACACCUUUACUCCCCACUUCAAUUGAAUAUAAUCUCUGAGUCAACAGAGGAUUGAGCAUCA
# B11: chr12:74934348:74934349:+_ENSG00000253719_ENST00000519948|hu_hu|FALSE|FALSE (ssRNA)
# RNA: GGGAGUUCUACAGUCCGACGAUCUUAUUUUAGCUCUUGCCAAGGUUUGAUUUUUUUUAAGUUAAUGCAAUUCUUUAAGACUAAUCUGUAACUAGGCCCCAAGCCUGAUCAGGACAACUCUAGGACAAGGCAGUAACAGUUCCACAACAGAGGAUUGAGCAUCA
# B12: chr2:202488911:202488912:-_ENSG00000155755_ENST00000286196|hu_mus|FALSE|FALSE (ssRNA)
# RNA: GGGAGUUCUACAGUCCGACGAUCAUUGAAACAUUUUUCAUAAUCUCCAGUAGCAUUUCAGCAUUAUGUAACAAAAGCUCAAUUGUAAAUACAUGUAUCUUAUAAAAAUACACUUAAAAACACGAGUGGGGAGCGCAGGCGCCACAACAGAGGAUUGAGCAUCA
# B13: chr1:145592185:145592186:+_ENSMUSG00000018196_ENSMUST00000111957|mus_mus|FALSE|FALSE (ssRNA)
# RNA: GGGAGUUCUACAGUCCGACGAUCGGCCAUGGAACAGUAAGAGCAGGAUGUUUUUGAGAAGAUCACCACACAAUUGUUAGAAAUUGUUUCUUGGAUCUGGUUCACAGGAGUAGUUGUAGACUUCCCCCAAAACGACGAUGUGCUCAACAGAGGAUUGAGCAUCA
# B14: chr11:80196919:80196920:+_ENSMUSG00000017421_ENSMUST00000017567|mus_hu|FALSE|FALSE (ssRNA)
# RNA: GGGAGUUCUACAGUCCGACGAUCUUCUUCUUCUUGCGACCCAUAACUGUGUUCUACCGGCAAAGUAAAAGGGAGGAGAAAAGAAGCAGGAGAAACGAGGCCAAAAAUCCCUCACUUUCCCAACCCAACGGCUACCACCACGUCCAACAGAGGAUUGAGCAUCA
# Target: T1, UNK ZnF1-3 (human, UniProt Q9C0B0 31-174)
# T1 sequence: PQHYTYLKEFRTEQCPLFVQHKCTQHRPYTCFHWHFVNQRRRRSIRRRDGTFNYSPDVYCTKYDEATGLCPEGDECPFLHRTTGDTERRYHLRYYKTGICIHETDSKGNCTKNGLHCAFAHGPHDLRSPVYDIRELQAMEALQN
# Assay: nsRBNS (natural sequence RNA bind-n-seq); RBNS binding buffer (assumed for nsRBNS): 25 mM Tris pH 7.5, 150 mM KCl, 3 mM MgCl2, 0.01% Triton X-100, 500 ug/ml BSA, 20 U/ml SUPERase-In, 4 C; UNK is unkempt and MSI1 is Musashi-1; names of the RNAs are library labels; protein concentration not given here; high values mean tight binding
row,Binder,binding signal [enrichment R]
1,B1,0.742
2,B2,0.781
3,B3,0.747
4,B4,0.941
5,B5,0.698
6,B6,0.984
7,B7,1.38
8,B8,1.89
9,B9,1.63
10,B10,1.63
11,B11,0.854
12,B12,0.826
13,B13,0.972
14,B14,1.33
